According to PubChem BioAssay (Tox21):
“And” between values parts separate entries of the source, which are not always exact repeats. Equal entries are not always repeated. This list was built around the results that the source calls inconclusive (neither active nor inactive); the mix of calls is not that of the screen. For some assays here: Where the call is inconclusive, the potency comes from a doubtful curve fit. The source holds several records for some structures; these can differ, active in one and inactive in another. The source made the active and inactive calls. Unless noted, the call rests on the fitted dose curve; in most records, active means well fitted curve in the direction sought with a large enough effect in the repeat runs; inconclusive means weak or mixed curves; inactive means no such curve, though single readings can be large; an effect the other way counts as inactive or inconclusive.

target: Nuclear receptor subfamily 1 group I member 3 (Homo sapiens) (UniProt Q14994); assay: qHTS assay to identify small molecule antagonists of the constitutive androstane receptor (CAR) signaling pathway (AID 1224838); settings: HepG2-CYP2B6-hCAR luciferase, CITCO-stimulated, 24 h; series mostly up to 92.4 µM; activity, negative = inhibition: at the top concentration;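 further: HepG2 cells stably expressing hCAR with CYP2B6 luciferase reporter stimulated by CITCO; nearly all actives have a fitted effect of over 40% in size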
Procedure, shortened: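 Reporter luminescence was quantified after 24 h exposure of hCAR/CYP2B6-2.2kb double-stable HepG2 cells to compounds at 15 concentrations in the presence of 50 nM CITCO final.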
On the % scale 0 is the no-effect control and ±100 the full control effect; potency means the concentration at half of the fitted maximal effect; tags describe the fitted curve by direction and shape or compound fluorescence and quenching.

Sequence of UniProt Q14994 (Q14994 whole entry, looked up): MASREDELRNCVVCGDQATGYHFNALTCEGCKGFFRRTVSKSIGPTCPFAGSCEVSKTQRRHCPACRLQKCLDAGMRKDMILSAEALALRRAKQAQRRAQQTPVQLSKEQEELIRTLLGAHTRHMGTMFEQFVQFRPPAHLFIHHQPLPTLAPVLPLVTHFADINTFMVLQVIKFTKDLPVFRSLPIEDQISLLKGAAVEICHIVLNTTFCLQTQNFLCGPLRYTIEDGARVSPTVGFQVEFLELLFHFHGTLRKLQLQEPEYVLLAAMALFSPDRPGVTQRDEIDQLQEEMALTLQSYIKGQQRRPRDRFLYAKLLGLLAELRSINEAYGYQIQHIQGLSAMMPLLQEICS

Row | SMILES | Potency | activity, negative = inhibition
1 | CN(C)c1ccc(C(=N)c2ccc(N(C)C)cc2)cc1 | inconclusive: 67.8 µM [inhibitor, single point] | 
2 | COC(OC)OC |  | inactive: -1.73%
3 | COc1cnc(NS(=O)(=O)c2ccc(N)cc2)nc1 | inconclusive: 33.5 µM [inhibitor, single point] | 
4 | CCCCC(CC)COC(=O)CCCCCCCC(=O)OCC(CC)CCCC (stereo not drawn) | active: 24.3 µM | 
5 | COC(=O)C(C)=O |  | inactive: -14%
6 | NC(=O)c1ccccc1C(N)=O | active: 30.8 µM | 
7 | COC1=CC(=O)C[C@@H](C)[C@]12Oc1c(Cl)c(OC)cc(OC)c1C2=O | inconclusive: 11.9 µM [inhibitor, partial curve] | 
8 | CCOC(=O)CS | active: 56 µM | 
9 | C[C@@H](O)[C@H]1C(=O)N2C(C(=O)O)=C(S[C@@H]3CN[C@H](C(=O)N(C)C)C3)[C@H](C)[C@H]12 | inconclusive: 3.35 µM [inhibitor, single point] | 
10 | CN1CCCCC1CCN1c2ccccc2Sc2ccc(S(C)=O)cc21 (stereo not drawn) | inconclusive: 33.5 µM [inhibitor, single point] | 
11 | CCOc1ccc2nc3cc(N)ccc3c(N)c2c1 | active: 2.66 µM | 
12 | COC(=O)c1ccc(C(=O)OC)cc1 | active: 6.95 µM | 
13 | CCCCCCCCCCCC[N+](C)(C)CCCS(=O)(=O)[O-] |  | inactive: -0.12%
14 | CC(=O)OC[C@H]1O[C@@H](OC(C)=O)[C@H](OC(C)=O)[C@@H]1OC(C)=O | inconclusive: 2.66 µM [inhibitor, full curve] | 
15 | CC1(C)CCC(C)(C)c2cc(NC(=O)c3ccc(C(=O)O)cc3)ccc21 | inconclusive: 2.98 µM [inhibitor, full curve] | 

target: Nuclear receptor subfamily 1 group I member 3 (Homo sapiens) (UniProt Q14994); assay: qHTS assay to identify small molecule agonists of the constitutive androstane receptor (CAR) signaling pathway (AID 1224839); settings: HepG2 hCAR CYP2B6-luciferase, agonist mode, 24 h; series mostly up to 92.4 µM; activation: at the top concentration; further: nearly all actives have a fitted effect of over 15% in size;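 on activation: HepG2 cells stably carrying human CAR and a CYP2B6 luciferase reporter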
Procedure, shortened: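 Luminescence read-out (ONE-Glo, 30 min, room temperature) from double-stable HepG2-CYP2B6-hCAR cells exposed 24 h to 15-point compound series in presence of 0.75 uM PK11195 final.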

Row | SMILES | Potency | activation
16 | Cc1ccc2c(ccc3ccccc32)c1 | inconclusive: 54.6 µM [activator, partial curve] | 
17 | O=C1c2ccccc2C(=O)C1c1ccc2ccccc2n1 | active: 6.05 µM | 
18 | CSSc1ccoc1C |  | inactive: -2.76%
19 | NS(=O)(=O)c1ccc(NC(=O)CCC(=O)O)cc1 |  | inactive: 0.626% [at 42.5 µM]
20 | C=CCCCCCCCCCCCC |  | inactive: -2.54%
21 | C/C=C/C(=O)N(CC)c1ccccc1C | inconclusive: 23.7 µM [activator, partial curve] | 
22 | CC1(C)CC(O)CC(C)(C)N1 |  | inactive: -0.947%
23 | [Cl][Dy]([Cl])[Cl] |  | inactive: -1.64%
24 | Nc1nc2ncc(CNc3ccc(C(=O)N[C@@H](CCC(=O)O)C(=O)O)cc3)nc2c(=O)[nH]1 | inactive | 
25 | C[C@@H]1NC(=O)[C@@H](N)CNC(=O)[C@H](C2CCNC(N)=N2)NC(=O)/C(=C/NC(N)=O)NC(=O)[C@H](CNC(=O)C[C@@H](N)CCCN)NC1=O (stereo partly drawn) |  | inactive: 4.38% [at 0.349 µM]
26 | C=CC(=O)O | inconclusive: 31.6 µM [activator, partial curve] | 
27 | Brc1c2ccccc2cc2ccccc12 | active: 55 µM | 
28 | c1ccc2sc(SSc3nc4ccccc4s3)nc2c1 | inconclusive: 8.2 µM [activator, partial curve, poor fit] | 
29 | CCOCCOC(=O)/C=C/c1ccc(OC)cc1 | inconclusive: 29.8 µM [activator, partial curve, poor fit] | 
30 | CCCOC(=O)C(C)O (stereo not drawn) |  | inactive: 5.07%
31 | CCCCCCCCCCCCCCCCCl |  | inactive: -1.81% [at 19 µM]
32 | CN1CC(=O)N/C1=N/C(=O)Nc1cccc(Cl)c1 | active: 33.5 µM | 
33 | CO[Si](OC)(OC)OC |  | inactive: -0.412%
34 | CCCCN1CCCC1C(=O)Nc1c(C)cc(C)cc1C (stereo not drawn) | active: 29.8 µM | 
35 | C/C(=C1\CCOC(=O)S1)N(C=O)Cc1cnc(C)nc1N |  | inactive: -2.45% [at 42.5 µM]
36 | COc1ccc2cccc(CCNC(C)=O)c2c1 | inconclusive: 23.7 µM [activator, partial curve] | 
37 | CC(=O)CC/C=C(\C)CC/C=C(\C)CC/C=C(\C)CCC=C(C)C | inconclusive: 29.8 µM [activator, single point] | 
38 | Cc1ccc([N+](=O)[O-])cc1N | inactive | 
39 | CC1=CC(=O)CCC1 |  | inactive: 1.14%
40 | CCC(CC)(CC(=O)Nc1cccc(/C=C/c2nc(C3CCC3)cs2)c1)C(=O)O | active: 23.7 µM | 

target: Thyrotropin receptor (Homo sapiens) (UniProt P16473); assay: qHTS assay to identify small molecule agonists of the thyroid stimulating hormone receptor (TSHR) signaling pathway (AID 1224843; calls by dose curve; further: nearly all actives have a fitted effect of over 45% in size); settings: TSHR-HEK293 cells, cAMP HTRF, agonist mode, 30 min; activation: at 92.4 µM (top of the series) unless noted
Procedure, shortened: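 Screening of the Tox21 10K collection used HEK293 cells engineered with TSHR at 800 cells per well. After a 30-min room-temperature compound exposure, HTRF cAMP reagents were added and fluorescence recorded 1 h later.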

Sequence of UniProt P16473 (P16473 whole entry, looked up): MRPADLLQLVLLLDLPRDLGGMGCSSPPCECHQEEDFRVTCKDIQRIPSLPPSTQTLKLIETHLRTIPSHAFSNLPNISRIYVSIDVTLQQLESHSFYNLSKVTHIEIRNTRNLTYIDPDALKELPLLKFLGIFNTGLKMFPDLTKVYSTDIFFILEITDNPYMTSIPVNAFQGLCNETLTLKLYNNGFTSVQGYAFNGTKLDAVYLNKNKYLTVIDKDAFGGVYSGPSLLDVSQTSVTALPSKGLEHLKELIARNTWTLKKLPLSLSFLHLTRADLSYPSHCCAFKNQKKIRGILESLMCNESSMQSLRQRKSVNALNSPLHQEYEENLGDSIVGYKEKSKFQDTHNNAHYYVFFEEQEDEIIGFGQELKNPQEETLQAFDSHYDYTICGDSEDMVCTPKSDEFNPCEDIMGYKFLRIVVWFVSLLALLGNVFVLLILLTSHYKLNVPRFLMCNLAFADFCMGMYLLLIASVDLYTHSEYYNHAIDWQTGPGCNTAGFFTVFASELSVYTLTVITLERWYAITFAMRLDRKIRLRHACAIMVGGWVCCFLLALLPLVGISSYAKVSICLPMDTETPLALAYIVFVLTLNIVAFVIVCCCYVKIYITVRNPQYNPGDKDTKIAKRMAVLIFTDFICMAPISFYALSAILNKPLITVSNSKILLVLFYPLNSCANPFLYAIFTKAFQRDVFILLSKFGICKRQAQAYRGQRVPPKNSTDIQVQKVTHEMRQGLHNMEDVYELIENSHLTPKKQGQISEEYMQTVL

Row | SMILES | activation | Potency
41 | CN(C)c1ccc(C(=N)c2ccc(N(C)C)cc2)cc1 | inconclusive: 25.6% and inconclusive: 27.9% | 
42 | COC(=O)C(C)=O | inactive: 1.28% | 
43 | COC1=CC(=O)C[C@@H](C)[C@]12Oc1c(Cl)c(OC)cc(OC)c1C2=O |  | active: 9.6 µM and active: 17.2 µM and inconclusive: 21.1 µM [activator, partial curve]
44 | COC(=O)c1ccc(C(=O)OC)cc1 | inconclusive: 40.7% | 
45 | CC(=O)OC[C@H]1O[C@@H](OC(C)=O)[C@H](OC(C)=O)[C@@H]1OC(C)=O | inactive: -0.463% [at 42.5 µM] | 

test system: not listed separately; assay: qHTS assay to identify small molecule agonists of the hypoxia (HIF-1) signaling pathway - cell viability counter screen (AID 1224844; calls by dose curve; further: nearly all actives have a fitted effect of over 50% in size); settings: HRE-bla ME-180 viability, CellTiter-Glo luminescence, 17 h; series mostly up to 76.8 µM; activity change, negative = cytotoxicity: at the top concentration
Procedure, shortened: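 Multiplexed with the HRE beta-lactamase assay, this viability read used CellTiter-Glo luminescence (30 min, RT) on HRE-bla ME-180 cells treated 17 hrs with compounds in 0.5% dialyzed FBS medium.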

Row | SMILES | activity change, negative = cytotoxicity | Potency
46 | COC(OC)OC | inactive: 8.78% | 
47 | CCCCC(CC)COC(=O)CCCCCCCC(=O)OCC(CC)CCCC (stereo not drawn) |  | inconclusive: 49 µM [cytotoxic, single point]
48 | CCOC(=O)CS |  | inconclusive: 50.4 µM [cytotoxic, partial curve, poor fit]
49 | CN1CCCCC1CCN1c2ccccc2Sc2ccc(S(C)=O)cc21 (stereo not drawn) |  | inconclusive: 26.8 µM [cytotoxic, partial curve, poor fit]
50 | CCOc1ccc2nc3cc(N)ccc3c(N)c2c1 |  | inconclusive: 3.01 µM [cytotoxic, partial curve]
51 | CCCCCCCCCCCC[N+](C)(C)CCCS(=O)(=O)[O-] | inactive: -10.1% | 
52 | CC(=O)OC[C@H]1O[C@@H](OC(C)=O)[C@H](OC(C)=O)[C@@H]1OC(C)=O | inactive: 1.1% [at 35.3 µM] | 
53 | CC1(C)CCC(C)(C)c2cc(NC(=O)c3ccc(C(=O)O)cc3)ccc21 |  | inconclusive: 26.8 µM [cytotoxic, partial curve, poor fit]
